Measurements: US20250340604A1, “BLOOD-BRAIN BARRIER TRANSLOCATING PEPTIDES AND RELATED MOLECULES AND METHODS OF USE THEREOF” (Enkefalos Biosciences, Inc., priority 2022, published 2025)

B1: GlcCSase-CYC17 fusion cyclotide: CYC17 (SEQ ID NO:72) linked to C-terminal end of glucocerebrosidase (SEQ ID NO:144) via Gly-Ser linker; SEQ ID NO:146 (protein)
chain: ARPCIPKSFGYSSVVCVCNATYCDSFDPPTFPALGTFSRYESTRSGRRMELSMGPIQANHTGTGLLLTLQPEQKFQKVKGFGGAMTDAAALNILALSPPAQNLLLKSYFSEEGIGYNIIRVPMASCDFSIRTYTYADTPDDFQLHNFSLPEEDTKLKIPLIHRALQLAQRPVSLLASPWTSPTWLKTNGAVNGKGSLKGQPGDIYHQTWARYFVKFLDAYAEHKLQFWAVTAENEPSAGLLSGYPFQCLGFTPEHQRDFIARDLGPTLANSTHHNVRLLMLDDQRLLLPHWAKVVLTDPEAAKYVHGIAVHWYLDFLAPAKATLGETHRLFPNTMLFASEACVGSKFWEQSVRLGSWDRGMQYSHSIITNLLYHVVGWTDWNLALNPEGGPNWVRNFVDSPIIVDITKDTFYKQPMFYHLGHFSKFIPEGSQRVGLVASQKNDLDAVALMHPDGSAVVVVLNRSSKDVPLTIKDPAVGFLETISPGYSIHTYLWHRQGSGGGSGGGGSGGGGSLE[about 40 residues left out here]
modifications: Glucocerebrosidase-CYC17 with linker
B2: NGF-cyclotide fusion: CYC17 fused to C-terminal end of human Pro-NGF (SEQ ID NO:147) via flexible linker, V5 and 6-His tags; SEQ ID NO:149 (protein)
chain: PHSESNVPAGHTIPQVHWTKLQHSLDTALRRARSAPAAAIAARVAGQTRNITVDPRLFKKRRLRSPRVLFSTQPPREAADTQDLDFEVGGAAPFNRTHRSKRSSSHPIFHRGEFSVCDSVSVWVGDKTTATDIKGKEVMVLGEVNINNSVFKQYFFETKCRDSNPVDSGCRGIDSKHWNSYCTTTHTFVKALTMDGKQAAWEFIRIDTACVCVLSRKAVRGGGGSGNS[about 40 residues left out here]
modifications: NGF-CYC17 cyclotide fusion

Legend:
[1] = Glucocerebroside activity assay (SensoLyte Red Glucocerebrosidase Fluorometric Assay Kit); assay type: biochemical; conditions: 10 μL concentrated HEK293F supernatant, room temperature, 1 hour kinetic; versus negative controls; FIG. 6A
Method: A standard glucocerebroside activity assay based on the ability of the GlcCSase-CYC17 fusion cyclotide to react with substrate was performed to assess the functional integrity/activity of the fusion cyclotide. Specifically, the enzymatic activity was assayed using the SensoLyte Red Glucocerebrosidase Fluorometric Assay Kit (AnaSpec) according to the manufacturer's protocol. The assay uses a resorufin-β-glucoside substrate that, upon cleavage of the glycosidic linkage by hGCSase, releases resorufin, which fluoresces at 610 nm upon excitation at 570 nm. The kinetic assay was conducted in triplicate in an opaque 96-well plate at room temperature in a SpectraMax fluorescence plate reader over the course of 1 hour using 10 μL of filtered, concentrated supernatant from the HEK293F hGCSase-CYC17 expression culture, 40 μL of assay buffer, and 50 μL of substrate solution. Positive (GCSase enzyme), inhibitor, vehicle only, and substrate only controls were assayed parallelly in triplicate.

[2] = target: T1, human transferrin receptor (hTfR) (Homo sapiens, UniProt P02786); assay: ELISA binding of GlcCSase-CYC17 fusion to transferrin receptor; conditions: 125 ng hTfR coated per well, concentrated expression supernatant; FIG. 6B
T1 construct: expressed in transfected cells; host or cells: HEK293F
Method: Binding of the GlcCSase-CYC17 fusion cyclotide was assessed by Enzyme-linked immunosorbent assay (ELISA) of hGCSase-HT2 using human transferrin receptor (hTfR) antigen. Duplicate wells of a high binding half area 96-well plate (Corning) were directly coated with 125 ng of hTfR in 50 μL Tris buffered saline plus 0.1% (v/v) Tween 20 (TBST) containing 2% milk powder (or TBST containing 2% milk powder alone as a negative control) at 4° C. overnight. After removal of the supernatants, the wells are blocked with 50 μL of TBST containing 2% milk powder at room temperature for 2 hours. The blocking agent was removed, and 25 μL of filtered, concentrated supernatant from the HEK293F hGCSase-CYC17 fusion expression culture (or 25 μL of filtered, concentrated supernatant from a non-hGCSase expressing HEK293F expression culture as a negative control) plus 25 μL of TBST containing 4% milk powder were added to the appropriate wells and incubated at room temperature for 1 hour. The supernatants were removed, and wells were washed 4 times with TBST. […] 50 μL of tetramethylbenzidine (TMB) substrate was added to each well and incubated at room temperature for 5 minutes, then quenched with 50 μL of 1 N sulfuric acid, and absorbance was read at 450 nm using a SpectraMax absorbance plate reader.

[3] = target: T2, His-tagged human Transferrin receptor (TrFR) (Homo sapiens, UniProt P02786); assay: ELISA binding of NGF-cyclotide fusion to transferrin receptor; conditions: receptor coated at 0.5, 1 or 2 μg/mL, anti-V5-HRP detection; FIG. 7
T2 construct: His tag
Method: Purified NGF-cyclotide fusion was contacted with His-tagged human transferrin receptor (TrFR) coated at various concentrations (0.5 μg/mL, 1 μg/mL, or 2 μg/mL) on a microwell plate. Binding of the NGF-cyclotide fusion to the coated human transferrin receptor was assessed by ELISA by anti-V5-HRP detection of the NGF-CYC17 fusion protein.

T1 sequence (P02786 whole entry, the tested form may be a part): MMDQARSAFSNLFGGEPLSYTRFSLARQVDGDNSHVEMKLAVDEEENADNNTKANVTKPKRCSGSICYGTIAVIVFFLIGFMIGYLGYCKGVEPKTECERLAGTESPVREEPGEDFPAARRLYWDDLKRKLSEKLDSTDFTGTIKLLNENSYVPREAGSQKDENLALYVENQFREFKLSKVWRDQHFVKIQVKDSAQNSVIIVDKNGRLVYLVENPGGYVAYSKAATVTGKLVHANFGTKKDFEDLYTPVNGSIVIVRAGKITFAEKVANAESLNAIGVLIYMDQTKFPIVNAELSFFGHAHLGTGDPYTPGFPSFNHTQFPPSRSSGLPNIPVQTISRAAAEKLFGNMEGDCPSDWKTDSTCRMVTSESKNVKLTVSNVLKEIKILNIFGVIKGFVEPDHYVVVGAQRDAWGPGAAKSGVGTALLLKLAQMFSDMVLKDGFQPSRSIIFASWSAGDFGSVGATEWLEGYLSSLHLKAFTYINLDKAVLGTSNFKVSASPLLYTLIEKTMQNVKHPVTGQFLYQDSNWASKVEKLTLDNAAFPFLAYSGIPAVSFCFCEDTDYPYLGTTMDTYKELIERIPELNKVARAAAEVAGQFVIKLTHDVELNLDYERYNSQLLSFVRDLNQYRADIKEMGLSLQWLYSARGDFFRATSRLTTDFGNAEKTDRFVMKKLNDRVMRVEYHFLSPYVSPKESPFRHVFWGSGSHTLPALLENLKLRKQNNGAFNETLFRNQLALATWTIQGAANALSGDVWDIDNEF
T2 sequence (P02786 whole entry, the tested form may be a part): as above

Molecule	enzymatic activity (emitted fluorescence) [1]	binding to hTfR [2]	binding to hTrFR [3]
B1	time dependent increase of emitted fluoresce	bound	–
B2	–	–	bound
